According to PubChem BioAssay AID1347120 (National Center for Advancing Translational Sciences (NCATS), 2019):
The campaign covered roughly 390,000 compounds. About 930 (0.24%) were called active. The inconclusive results got no clear call from the source; some entries with a clear call stand among them for comparison. Calls come from the whole dose curve; as a rule, active = well fitted activation curve with a large enough effect; inconclusive = small, poorly fitted or top-dose-only effect; inactive = no such curve, though single readings can be large or run the other way. Potencies beside an inconclusive call are fits to weak or partial responses and may not hold up.

Experiment: qHTS for Suppressors of FUS Proteinopathy: Primary screen using FUS-linked yeast assay; note: nearly all actives have a fitted effect of over 55% in size
Conditions: S. cerevisiae FUS-expressing, OD600, 24 h; Potency: growth rescue; series mostly up to 76.6 µM
In short: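 Restored growth of FUS-toxic S. cerevisiae, read as 600 nm absorbance after 24 h at 30C in galactose medium (starting OD 0.005). Controls CP55940 and DMSO.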
Potency is the fitted concentration of half-maximal effect; tags give direction and shape of the fitted curve.

SMILES	Potency
O=C(Nc1ccccc1)N1CCN2C(=O)c3ccccc3C12c1ccccc1 (stereo not drawn)	inconclusive: 28.2 µM [activator, single point]
CCOC(=O)c1nc(C)nc(Sc2n[nH]c(-c3ccc(C(C)(C)C)cc3)n2)c1C	inconclusive: 28.2 µM [activator, single point]
O=C1N(c2ccc(Cl)c(Cl)c2)CN(Cc2ccccc2)CN1n1cnnc1	inactive
O=C(NS(=O)(=O)c1ccc2ccc(S(=O)(=O)NCCSc3ccccc3)cc2c1)c1cccc2ccccc12	inconclusive: 50.1 µM [activator, single point]
COc1ccc(CCNc2c(C)c(C)nc3ncnn23)cc1	inactive
O=C(Nc1ccc(F)c(Cl)c1)c1cc(C2CCCCN2C(=O)c2ccc3c(c2)CCO3)on1 (stereo not drawn)	inconclusive: 39.8 µM [activator, single point]
Cc1cccc(OCC(=O)N(Cc2ccccc2)c2c(N)n(Cc3ccccc3)c(=O)[nH]c2=O)c1	inactive
COc1ccc(-c2ccnc3nc(N4CCN(c5ccccc5)CC4)nn23)cc1	inactive
COc1cc(C)c(NC(=O)c2cc(C3CC3)nc3c2cnn3C(C)C)cc1OC	inconclusive: 22.4 µM [activator, partial curve]
COc1ccc(NC(=O)CCc2nnc3ccc(N4CCC(C)CC4)nn23)cc1OC	inconclusive: 25.1 µM [activator, single point]
COc1cc(NS(=O)(=O)c2ccc(N/C=C(\C=O)c3nc4cc(Cl)ccc4o3)cc2)nc(OC)n1	inconclusive: 17.8 µM [activator, partial curve, poor fit]
CCOC(=O)c1ccc(NC(=O)c2c(NCc3sccc3C)sc3c2CCCCC3)cc1	inconclusive: 28.2 µM [activator, single point]
COc1ccc(C(=O)Nc2nc3ccccc3[nH]2)cc1	inconclusive: 31.6 µM [activator, partial curve, poor fit]
O=C(NC1CCCCC1)c1c[nH]c2ccc(S(=O)(=O)Nc3ccccc3F)cc2c1=O	inactive
CCCCCCCCN1C(=O)[C@@H](CC(=O)NCc2ccc(C)o2)C[C@@]2(C(=O)OC)C1=C[C@H](COCc1ccccc1)O[C@@H]2C	inconclusive: 25.1 µM [activator, partial curve, poor fit]
C[C@H](CO)N1C[C@H](C)[C@@H](CN(C)S(=O)(=O)c2ccccc2)Oc2ccc(NC(=O)Cc3ccccc3)cc2C1=O	inconclusive: 25.1 µM [activator, partial curve]
COc1cc(/C=C/c2ccc3cccc([N+](=O)[O-])c3n2)ccc1OCC#N	inconclusive: 28.2 µM [activator, single point]
O=C(COC(=O)/C=C/c1ccc([N+](=O)[O-])cc1)NCc1ccco1	inactive
O=C(Nc1ccc2nc(C3CC3)n(Cc3ccc(F)cc3)c(=O)c2c1)c1ccco1	inconclusive: 50.1 µM [activator, single point]

SMILES	Potency
Cc1ccc(OCC(=O)Nc2ccc(Cl)c(-c3nc4ccccc4[nH]3)c2)cc1C	inconclusive: 31.6 µM [activator, single point]
CCn1cc2nc(SCc3ccc(C)cc3)n(CCc3ccccc3)c(=O)c2n1	inconclusive: 28.2 µM [activator, single point]
CCCS(=O)(=O)c1c(S(=O)(=O)CCC)c2c(N)cccn2c1C(=O)c1ccccc1	inconclusive: 35.5 µM [activator, single point]
CC[N+]1(C)CC2CCC(C)(C1)C2(C)C (stereo not drawn)	inactive
COc1ccc(OC)c(S(=O)(=O)Nc2cc3c(C(C)=O)c(C)oc3c3ccccc23)c1	inconclusive: 28.2 µM [activator, single point]
COc1ccccc1N(Cc1ccccc1)S(=O)(=O)c1cccc(C(=O)N2CCCCC2)c1	inconclusive: 28.2 µM [activator, partial curve, poor fit]
C=CCN(c1ccccc1Cl)S(=O)(=O)c1cc(C(=O)N2CCCC2)ccc1Cl	inconclusive: 35.5 µM [activator, single point]
COc1ccc(OC)c(NC(=O)Cn2c(CCC(=O)O)ccc2-c2ccc(C)cc2)c1	inconclusive: 39.8 µM [activator, partial curve, poor fit]
COc1ccc2cc(CN(CC3CCCO3)C(=S)NCc3ccco3)c(=O)[nH]c2c1 (stereo not drawn)	inconclusive: 0.891 µM [activator, partial curve, poor fit]
CCCCn1c(-c2cccc(Br)c2)nc2cc3[nH]c(=O)c(C(C)C)nc3cc21	inconclusive: 28.2 µM [activator, single point]
Cc1ccc(C)c(N2CCN(C(=O)CCS(=O)(=O)c3ccc4c(c3)CC(=O)N4C)CC2)c1	inconclusive: 39.8 µM [activator, partial curve, poor fit]
COc1ccc(NC(=O)Nc2ccc3c(c2)C(=O)N([C@H](C)CO)C[C@H](C)[C@@H](CN(C)C(=O)Nc2ccc4c(c2)OCO4)O3)cc1	inconclusive: 31.6 µM [activator, single point]
C=CCn1c(O)c(C(CC)=NCCN2CCOCC2)c(=O)[nH]c1=O	inconclusive: 5.62 µM [activator, partial curve, poor fit]
COc1ccc(-c2onc(C)c2C)cc1S(=O)(=O)NCc1ccc(Br)cc1	inactive
COc1ccc(CNC(=O)c2ccc3[nH]c(C)c(C)c3c2)c(OC)c1	inconclusive: 28.2 µM [activator, partial curve, poor fit]
CN(Cc1ccccc1)C(=O)CCn1c(=O)oc2ccccc21	inactive
CCSc1ccc([C@@H]2[C@H]3C(=O)N(CC)C(=O)[C@H]3[C@]3(C(=O)OC)CCCCN23)cc1	inactive
COc1c(N2CCN(C(=S)NCc3ccccc3)C(C)C2)c(F)cc2c(=O)c(C(=O)O)cn(C3CC3)c12 (stereo not drawn)	inconclusive: 25.1 µM [activator, partial curve, poor fit]
Clc1ccc(-c2cn3c(n2)CCC3)cc1	inactive
